Experimental data reported in the supplement of paper PMC11876631.
± gives the standard deviation of the averaged measurements. Laboratory Escherichia coli strains with one amino-acid change in an essential protein, pooled on minimal glucose agar with carbenicillin or gentamicin at twice the control MIC (plus kanamycin and chloramphenicol for the plasmids), 48 h. Fold change of barcode share against drug-free plates; higher = less susceptible. Active = above 20 in both replicates (the paper's putatively resistant). '<' = one read or none on drug, '>' = one read or none on a drug-free plate. Shares are relative, so most strains fall below 1 when a few take over. Listed are strains with at least 15 reads on both drug-free plates, and hits; most hits rest on fewer reference reads. Replicate rank correlation about 0.5. Edits are read from barcodes.

Biological target: Escherichia coli (laboratory strain)
Experiment: barcode share on antibiotic plates over drug-free plates; higher = less susceptible
Method: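 A pool of E. coli strains, each edited to carry one amino-acid change in an essential protein, was grown for 48 h on minimal glucose agar with or without antibiotic; strain barcodes were sequenced; mean of two replicates.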

[1] = antibiotic: carbenicillin, 2× MIC (3.1 µg/mL)
[2] = antibiotic: gentamicin, 2× MIC (MIC 0.45 µg/mL)

| Protein | fold change of barcode share [1] | fold change of barcode share [2] |
| --- | --- | --- |
| argA V62Q (protein) MVKERKTELVEGFRHSVPYINTHRGKTFVIMLGGEAIEHENFSSIVNDIGLLHSLGIRLVVQYGARPQIDANLAAHHHEPLYHKNIRVTDAKTLELVKQAAGTLQLDITARLSMSLNNTPLQGAHINVVSGNFIIAQPLGVDDGVDYCHSGRIRRIDEDAIHRQLDSGAIVLMGPVAVSVTGESFNLTSEEIATQLAIKLKAEKMIGFCSSQGVTNDDGDIVSELFPNEAQARVEAQEEKGDYNSGTVRFLRGAVKACRSGVRRCHLISYQEDGALLQELFSRDGIGTQIVMESAEQIRRATINDIGGILELIRPLEQQGILVRRSREQLEMEIDKFTIIQRDNTTIACAALYPFPEEKIGEMACVAVHPDYRSSSRGEVLLERIAAQAKQSGLSKLFVLTTRSIHWFQERGFTPVDIDLLPESKKQLYNYQRKSKVLMADLG | 0.385 ± 0.014 | 0.0116 ± 0.0087 |
| argA V60A (protein) MVKERKTELVEGFRHSVPYINTHRGKTFVIMLGGEAIEHENFSSIVNDIGLLHSLGIRLAVVYGARPQIDANLAAHHHEPLYHKNIRVTDAKTLELVKQAAGTLQLDITARLSMSLNNTPLQGAHINVVSGNFIIAQPLGVDDGVDYCHSGRIRRIDEDAIHRQLDSGAIVLMGPVAVSVTGESFNLTSEEIATQLAIKLKAEKMIGFCSSQGVTNDDGDIVSELFPNEAQARVEAQEEKGDYNSGTVRFLRGAVKACRSGVRRCHLISYQEDGALLQELFSRDGIGTQIVMESAEQIRRATINDIGGILELIRPLEQQGILVRRSREQLEMEIDKFTIIQRDNTTIACAALYPFPEEKIGEMACVAVHPDYRSSSRGEVLLERIAAQAKQSGLSKLFVLTTRSIHWFQERGFTPVDIDLLPESKKQLYNYQRKSKVLMADLG | 0.444 ± 0.1 | 0.0322 ± 0.024 |
| argA V60Q (protein) MVKERKTELVEGFRHSVPYINTHRGKTFVIMLGGEAIEHENFSSIVNDIGLLHSLGIRLQVVYGARPQIDANLAAHHHEPLYHKNIRVTDAKTLELVKQAAGTLQLDITARLSMSLNNTPLQGAHINVVSGNFIIAQPLGVDDGVDYCHSGRIRRIDEDAIHRQLDSGAIVLMGPVAVSVTGESFNLTSEEIATQLAIKLKAEKMIGFCSSQGVTNDDGDIVSELFPNEAQARVEAQEEKGDYNSGTVRFLRGAVKACRSGVRRCHLISYQEDGALLQELFSRDGIGTQIVMESAEQIRRATINDIGGILELIRPLEQQGILVRRSREQLEMEIDKFTIIQRDNTTIACAALYPFPEEKIGEMACVAVHPDYRSSSRGEVLLERIAAQAKQSGLSKLFVLTTRSIHWFQERGFTPVDIDLLPESKKQLYNYQRKSKVLMADLG | 0.585 ± 0.24 | – |
| argA V62P (protein) MVKERKTELVEGFRHSVPYINTHRGKTFVIMLGGEAIEHENFSSIVNDIGLLHSLGIRLVVPYGARPQIDANLAAHHHEPLYHKNIRVTDAKTLELVKQAAGTLQLDITARLSMSLNNTPLQGAHINVVSGNFIIAQPLGVDDGVDYCHSGRIRRIDEDAIHRQLDSGAIVLMGPVAVSVTGESFNLTSEEIATQLAIKLKAEKMIGFCSSQGVTNDDGDIVSELFPNEAQARVEAQEEKGDYNSGTVRFLRGAVKACRSGVRRCHLISYQEDGALLQELFSRDGIGTQIVMESAEQIRRATINDIGGILELIRPLEQQGILVRRSREQLEMEIDKFTIIQRDNTTIACAALYPFPEEKIGEMACVAVHPDYRSSSRGEVLLERIAAQAKQSGLSKLFVLTTRSIHWFQERGFTPVDIDLLPESKKQLYNYQRKSKVLMADLG | 1.16 ± 0.21 | – |
| eno I171Q (protein) MSKIVKIIGREIIDSRGNPTVEAEVHLEGGFVGMAAAPSGASTGSREALELRDGDKSRFLGKGVTKAVAAVNGPIAQALIGKDAKDQAGIDKIMIDLDGTENKSKFGANAILAVSLANAKAAAAAKGMPLYEHIAELNGTPGKYSMPVPMMNIINGGEHADNNVDIQEFMQQPVGAKTVKEAIRMGSEVFHHLAKVLKAKGMNTAVGDEGGYAPNLGSNAEALAVIAEAVKAAGYELGKDITLAMDCAASEFYKDGKYVLAGEGNKAFTSEEFTHFLEELTKQYPIVSIEDGLDESDWDGFAYQTKVLGDKIQLVGDDLFVTNTKILKEGIEKGIANSILIKFNQIGSLTETLAAIKMAKDAGYTAVISHRSGETEDATIADLAVGTAAGQIKTGSMSRSDRVAKYNQLIRIEEALGEKAPYNGRKEIKGQA | 0.51 ± 0.3 | 0.351 ± 0.47 |
| eno L277P (protein) MSKIVKIIGREIIDSRGNPTVEAEVHLEGGFVGMAAAPSGASTGSREALELRDGDKSRFLGKGVTKAVAAVNGPIAQALIGKDAKDQAGIDKIMIDLDGTENKSKFGANAILAVSLANAKAAAAAKGMPLYEHIAELNGTPGKYSMPVPMMNIINGGEHADNNVDIQEFMIQPVGAKTVKEAIRMGSEVFHHLAKVLKAKGMNTAVGDEGGYAPNLGSNAEALAVIAEAVKAAGYELGKDITLAMDCAASEFYKDGKYVLAGEGNKAFTSEEFTHFPEELTKQYPIVSIEDGLDESDWDGFAYQTKVLGDKIQLVGDDLFVTNTKILKEGIEKGIANSILIKFNQIGSLTETLAAIKMAKDAGYTAVISHRSGETEDATIADLAVGTAAGQIKTGSMSRSDRVAKYNQLIRIEEALGEKAPYNGRKEIKGQA | 0.258 ± 0.11 | < 0.00403 |
| eno L277A (protein) MSKIVKIIGREIIDSRGNPTVEAEVHLEGGFVGMAAAPSGASTGSREALELRDGDKSRFLGKGVTKAVAAVNGPIAQALIGKDAKDQAGIDKIMIDLDGTENKSKFGANAILAVSLANAKAAAAAKGMPLYEHIAELNGTPGKYSMPVPMMNIINGGEHADNNVDIQEFMIQPVGAKTVKEAIRMGSEVFHHLAKVLKAKGMNTAVGDEGGYAPNLGSNAEALAVIAEAVKAAGYELGKDITLAMDCAASEFYKDGKYVLAGEGNKAFTSEEFTHFAEELTKQYPIVSIEDGLDESDWDGFAYQTKVLGDKIQLVGDDLFVTNTKILKEGIEKGIANSILIKFNQIGSLTETLAAIKMAKDAGYTAVISHRSGETEDATIADLAVGTAAGQIKTGSMSRSDRVAKYNQLIRIEEALGEKAPYNGRKEIKGQA | 0.166 ± 0.077 | 0.0148 ± 0.011 |
| eno L277W (protein) MSKIVKIIGREIIDSRGNPTVEAEVHLEGGFVGMAAAPSGASTGSREALELRDGDKSRFLGKGVTKAVAAVNGPIAQALIGKDAKDQAGIDKIMIDLDGTENKSKFGANAILAVSLANAKAAAAAKGMPLYEHIAELNGTPGKYSMPVPMMNIINGGEHADNNVDIQEFMIQPVGAKTVKEAIRMGSEVFHHLAKVLKAKGMNTAVGDEGGYAPNLGSNAEALAVIAEAVKAAGYELGKDITLAMDCAASEFYKDGKYVLAGEGNKAFTSEEFTHFWEELTKQYPIVSIEDGLDESDWDGFAYQTKVLGDKIQLVGDDLFVTNTKILKEGIEKGIANSILIKFNQIGSLTETLAAIKMAKDAGYTAVISHRSGETEDATIADLAVGTAAGQIKTGSMSRSDRVAKYNQLIRIEEALGEKAPYNGRKEIKGQA | 0.327 ± 0.0097 | < 0.0116 |
| eno L277Q (protein) MSKIVKIIGREIIDSRGNPTVEAEVHLEGGFVGMAAAPSGASTGSREALELRDGDKSRFLGKGVTKAVAAVNGPIAQALIGKDAKDQAGIDKIMIDLDGTENKSKFGANAILAVSLANAKAAAAAKGMPLYEHIAELNGTPGKYSMPVPMMNIINGGEHADNNVDIQEFMIQPVGAKTVKEAIRMGSEVFHHLAKVLKAKGMNTAVGDEGGYAPNLGSNAEALAVIAEAVKAAGYELGKDITLAMDCAASEFYKDGKYVLAGEGNKAFTSEEFTHFQEELTKQYPIVSIEDGLDESDWDGFAYQTKVLGDKIQLVGDDLFVTNTKILKEGIEKGIANSILIKFNQIGSLTETLAAIKMAKDAGYTAVISHRSGETEDATIADLAVGTAAGQIKTGSMSRSDRVAKYNQLIRIEEALGEKAPYNGRKEIKGQA | 0.164 ± 0.11 | < 0.00568 |
| eno L193A (protein) MSKIVKIIGREIIDSRGNPTVEAEVHLEGGFVGMAAAPSGASTGSREALELRDGDKSRFLGKGVTKAVAAVNGPIAQALIGKDAKDQAGIDKIMIDLDGTENKSKFGANAILAVSLANAKAAAAAKGMPLYEHIAELNGTPGKYSMPVPMMNIINGGEHADNNVDIQEFMIQPVGAKTVKEAIRMGSEVFHHAAKVLKAKGMNTAVGDEGGYAPNLGSNAEALAVIAEAVKAAGYELGKDITLAMDCAASEFYKDGKYVLAGEGNKAFTSEEFTHFLEELTKQYPIVSIEDGLDESDWDGFAYQTKVLGDKIQLVGDDLFVTNTKILKEGIEKGIANSILIKFNQIGSLTETLAAIKMAKDAGYTAVISHRSGETEDATIADLAVGTAAGQIKTGSMSRSDRVAKYNQLIRIEEALGEKAPYNGRKEIKGQA | 0.866 ± 0.41 | 0.827 ± 1.1 |
| eno L277D (protein) MSKIVKIIGREIIDSRGNPTVEAEVHLEGGFVGMAAAPSGASTGSREALELRDGDKSRFLGKGVTKAVAAVNGPIAQALIGKDAKDQAGIDKIMIDLDGTENKSKFGANAILAVSLANAKAAAAAKGMPLYEHIAELNGTPGKYSMPVPMMNIINGGEHADNNVDIQEFMIQPVGAKTVKEAIRMGSEVFHHLAKVLKAKGMNTAVGDEGGYAPNLGSNAEALAVIAEAVKAAGYELGKDITLAMDCAASEFYKDGKYVLAGEGNKAFTSEEFTHFDEELTKQYPIVSIEDGLDESDWDGFAYQTKVLGDKIQLVGDDLFVTNTKILKEGIEKGIANSILIKFNQIGSLTETLAAIKMAKDAGYTAVISHRSGETEDATIADLAVGTAAGQIKTGSMSRSDRVAKYNQLIRIEEALGEKAPYNGRKEIKGQA | 0.563 ± 0.35 | 0.0984 ± 0.034 |
